Measurements reported in the supplement of paper PMC8728848.
The other results are listed elsewhere or left out.

Legend:
Assay in all cases: glycan array binding signal (z-score within array); higher = stronger binding
Details in all cases: glycan notation: IUPAC condensed, linker removed
[1] = target: Gal(b1-4)GlcNAc(b1-3)Gal(b1-4)GlcNAc(b1-6)[Gal(b1-3)]GalNAc
How it was run: (§1)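 From the Consortium for Functional Glycomics database, 3228 arrays were curated, keeping only those whose protein sequence was available. Binding is given as a within-array Z-score averaged across arrays sharing a protein sequence and across linkers. Negative Z-scores can be read as non-binding.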

[2] = target: Gal(b1-4)GlcNAc(b1-3)Gal(b1-4)[Fuc(a1-3)]GlcNAc(b1-3)Gal(b1-4)[Fuc(a1-3)]GlcNAc
How it was run: as §1

[3] = target: Gal(b1-4)GlcNAc(b1-3)GalNAc
How it was run: as §1

[4] = target: Gal(b1-4)GlcNAc(b1-3)[Fuc(a1-3)GlcNAc(b1-6)]Gal(b1-4)Glc
How it was run: as §1

[5] = target: Gal(b1-4)GlcNAc(b1-3)[Gal(b1-4)GlcNAc(b1-6)]Gal(b1-4)GlcNAc
How it was run: as §1

[6] = target: Gal(b1-4)GlcNAc(b1-3)[GlcNAc(b1-6)]Gal(b1-4)GlcNAc
How it was run: as §1

[7] = target: Gal(b1-4)GlcNAc(b1-6)Gal(b1-4)GlcNAc
How it was run: as §1

[8] = target: Gal(b1-4)GlcNAc(b1-6)GalNAc
How it was run: as §1

[9] = target: Gal(b1-4)GlcNAc(b1-6)[Gal(b1-3)]GalNAc
How it was run: as §1

[10] = target: Gal(b1-4)GlcNAc(b1-6)[Gal(b1-4)GlcNAc(b1-3)]GalNAc
How it was run: as §1

Gal(b1-4)GlcNAc6P = target: Gal(b1-4)GlcNAc6P
How it was run: as §1

Gal(b1-6)Gal = target: Gal(b1-6)Gal
How it was run: as §1

Gal3S(b1-3)GalNAc = target: Gal3S(b1-3)GalNAc
How it was run: as §1

Gal3S(b1-3)GlcNAc = target: Gal3S(b1-3)GlcNAc
How it was run: as §1

[11] = target: Gal3S(b1-3)[Fuc(a1-4)]GlcNAc
How it was run: as §1

Gal3S(b1-4)Glc = target: Gal3S(b1-4)Glc
How it was run: as §1

Gal3S(b1-4)Glc6S = target: Gal3S(b1-4)Glc6S
How it was run: as §1

Gal3S(b1-4)GlcNAc = target: Gal3S(b1-4)GlcNAc
How it was run: as §1

[12] = target: Gal3S(b1-4)[Fuc(a1-3)]Glc6S
How it was run: as §1

[13] = target: Gal3S(b1-4)[Fuc(a1-3)]GlcNAc
How it was run: as §1

[14] = target: Gal3S(b1-4)[Fuc(a1-3)]GlcNAc6S
How it was run: as §1

Gal3S4S(b1-4)GlcNAc = target: Gal3S4S(b1-4)GlcNAc
How it was run: as §1

Gal3S6S(b1-4)GlcNAc = target: Gal3S6S(b1-4)GlcNAc
How it was run: as §1

Gal3S6S(b1-4)GlcNAc6S = target: Gal3S6S(b1-4)GlcNAc6S
How it was run: as §1

Gal4S(b1-4)GlcNAc = target: Gal4S(b1-4)GlcNAc
How it was run: as §1

Gal4S6S(b1-4)GlcNAc = target: Gal4S6S(b1-4)GlcNAc
How it was run: as §1

Gal6P(b1-4)GlcNAc = target: Gal6P(b1-4)GlcNAc
How it was run: as §1

Gal6S(b1-3)GlcNAc = target: Gal6S(b1-3)GlcNAc
How it was run: as §1

Gal6S(b1-3)GlcNAc6S = target: Gal6S(b1-3)GlcNAc6S
How it was run: as §1

Gal6S(b1-4)Glc = target: Gal6S(b1-4)Glc
How it was run: as §1

Gal6S(b1-4)Glc6S = target: Gal6S(b1-4)Glc6S
How it was run: as §1

Gal6S(b1-4)GlcNAc = target: Gal6S(b1-4)GlcNAc
How it was run: as §1

Gal6S(b1-4)GlcNAc6S = target: Gal6S(b1-4)GlcNAc6S
How it was run: as §1

GalNAc(a1-3)Gal = target: GalNAc(a1-3)Gal
How it was run: as §1

GalNAc(a1-3)GalNAc = target: GalNAc(a1-3)GalNAc
How it was run: as §1

[15] = target: GalNAc(a1-3)GalNAc(b1-3)Gal(a1-4)Gal(b1-4)Glc
How it was run: as §1

[16] = target: GalNAc(a1-3)GalNAc(b1-3)Gal(a1-4)Gal(b1-4)GlcNAc
How it was run: as §1

GalNAc(b1-3)Gal = target: GalNAc(b1-3)Gal
How it was run: as §1

[17] = target: GalNAc(b1-3)Gal(a1-4)Gal(b1-4)GlcNAc
How it was run: as §1

[18] = target: GalNAc(b1-3)Gal(a1-4)Gal(b1-4)GlcNAc(b1-3)Gal(b1-4)Glc
How it was run: as §1

[19] = target: GalNAc(b1-3)Gal(a1-6)Gal(b1-4)Glc
How it was run: as §1

GalNAc(b1-3)GalNAc = target: GalNAc(b1-3)GalNAc
How it was run: as §1

GalNAc(b1-3)GlcNAc = target: GalNAc(b1-3)GlcNAc
How it was run: as §1

GalNAc(b1-4)Gal(b1-4)Glc = target: GalNAc(b1-4)Gal(b1-4)Glc
How it was run: as §1

GalNAc(b1-4)GlcNAc = target: GalNAc(b1-4)GlcNAc
How it was run: as §1

B1: DrGRIFIN (Danio rerio), Q6DGJ1 (protein)
chain: MTLRFEASCPDGLCPGWSVILKGETPPEASKFEINFLCDRDDRVAFHFNPRFTESDIICNSYMANRWGQEERCNHFPLGVEEPFQIEIYSDNDHFHVYIDKAKVMQYKHRVEDLKTITKLQVVNDVKISSLEITKKLFY
glycan array binding signal (z-score) [1]: -0.176 | glycan array binding signal (z-score) [2]: -0.179 | glycan array binding signal (z-score) [3]: -0.164 | glycan array binding signal (z-score) [4]: -0.215 | glycan array binding signal (z-score) [5]: -0.124 | glycan array binding signal (z-score) [6]: -0.153 | glycan array binding signal (z-score) [7]: -0.225 | glycan array binding signal (z-score) [8]: -0.141 | glycan array binding signal (z-score) [9]: -0.203 | glycan array binding signal (z-score) [10]: -0.173 | glycan array binding signal (z-score) (Gal(b1-4)GlcNAc6P): -0.174 | glycan array binding signal (z-score) (Gal(b1-6)Gal): -0.101 | glycan array binding signal (z-score) (Gal3S(b1-3)GalNAc): -0.161 | glycan array binding signal (z-score) (Gal3S(b1-3)GlcNAc): -0.181 | glycan array binding signal (z-score) [11]: -0.169 | glycan array binding signal (z-score) (Gal3S(b1-4)Glc): -0.182 | glycan array binding signal (z-score) (Gal3S(b1-4)Glc6S): -0.179 | glycan array binding signal (z-score) (Gal3S(b1-4)GlcNAc): -0.147 | glycan array binding signal (z-score) [12]: -0.151 | glycan array binding signal (z-score) [13]: -0.092 | glycan array binding signal (z-score) [14]: -0.16 | glycan array binding signal (z-score) (Gal3S4S(b1-4)GlcNAc): -0.193 | glycan array binding signal (z-score) (Gal3S6S(b1-4)GlcNAc): -0.193 | glycan array binding signal (z-score) (Gal3S6S(b1-4)GlcNAc6S): -0.097 | glycan array binding signal (z-score) (Gal4S(b1-4)GlcNAc): -0.226 | glycan array binding signal (z-score) (Gal4S6S(b1-4)GlcNAc): -0.167 | glycan array binding signal (z-score) (Gal6P(b1-4)GlcNAc): -0.218 | glycan array binding signal (z-score) (Gal6S(b1-3)GlcNAc): -0.095 | glycan array binding signal (z-score) (Gal6S(b1-3)GlcNAc6S): -0.151 | glycan array binding signal (z-score) (Gal6S(b1-4)Glc): -0.18 | glycan array binding signal (z-score) (Gal6S(b1-4)Glc6S): -0.192 | glycan array binding signal (z-score) (Gal6S(b1-4)GlcNAc): -0.181 | glycan array binding signal (z-score) (Gal6S(b1-4)GlcNAc6S): -0.178 | glycan array binding signal (z-score) (GalNAc(a1-3)Gal): -0.153 | glycan array binding signal (z-score) (GalNAc(a1-3)GalNAc): -0.177 | glycan array binding signal (z-score) [15]: -0.214 | glycan array binding signal (z-score) [16]: -0.182 | glycan array binding signal (z-score) (GalNAc(b1-3)Gal): -0.026 | glycan array binding signal (z-score) [17]: -0.132 | glycan array binding signal (z-score) [18]: -0.12 | glycan array binding signal (z-score) [19]: -0.212 | glycan array binding signal (z-score) (GalNAc(b1-3)GalNAc): -0.175 | glycan array binding signal (z-score) (GalNAc(b1-3)GlcNAc): -0.192 | glycan array binding signal (z-score) (GalNAc(b1-4)Gal(b1-4)Glc): -0.187 | glycan array binding signal (z-score) (GalNAc(b1-4)GlcNAc): -0.123
